Experimental data as given in PubChem BioAssay AID1671188 (National Center for Advancing Translational Sciences (NCATS), 2021).
Values joined by “and” are separate entries in the source; they are usually repeats but may differ in a detail not shown here. Equal entries are not always repeated. Among all 100,000 compounds or so, about 250 (0.25%) were called active. Inconclusive means that the source gave no clear call. Such entries were picked first, then a sample of the others. The call rests on the fitted dose curve; in most records, active means well fitted inhibition curve with a large enough effect; inconclusive means small, poorly fitted or top-dose-only effect; inactive means flat fitted curve, though single readings scatter. A potency beside an inconclusive call is a rough fit, not a confirmed value.
Further: nearly all actives have a fitted effect of over 60% in size.
On the % scale 0 is the no-effect control and ±100 the full control effect; potency means the concentration at half of the fitted maximal effect; tags describe the fitted curve by direction and shape.

The compounds below were run against Alanine aminotransferase 2 (Homo sapiens) (UniProt Q8TD30) (assay: Primary qHTS assay for inhibitors of Glutamate pyruvate transaminase 2 (GPT2)). Settings: Recombinant GPT2, coupled pyruvate oxidase/HRP Amplex Red fluorescence; activity change, negative = inhibition: at 57.7 µM (top of the series) unless noted; series mostly up to 57.7 µM.
Chain of UniProt Q8TD30 (Q8TD30 whole entry, looked up): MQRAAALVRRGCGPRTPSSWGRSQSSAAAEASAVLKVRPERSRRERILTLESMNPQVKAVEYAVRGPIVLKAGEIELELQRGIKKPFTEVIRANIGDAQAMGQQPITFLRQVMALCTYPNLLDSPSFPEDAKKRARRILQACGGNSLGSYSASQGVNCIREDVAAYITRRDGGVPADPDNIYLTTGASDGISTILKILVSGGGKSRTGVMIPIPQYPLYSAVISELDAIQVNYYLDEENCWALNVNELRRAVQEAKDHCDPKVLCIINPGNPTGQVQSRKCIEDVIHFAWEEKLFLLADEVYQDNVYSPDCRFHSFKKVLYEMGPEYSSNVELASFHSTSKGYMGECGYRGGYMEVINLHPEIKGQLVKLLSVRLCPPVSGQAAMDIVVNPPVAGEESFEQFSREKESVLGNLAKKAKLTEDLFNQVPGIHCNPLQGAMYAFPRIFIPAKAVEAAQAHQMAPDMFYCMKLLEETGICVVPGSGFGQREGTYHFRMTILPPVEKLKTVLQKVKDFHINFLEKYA
Procedure: Assay Provider: Zhenghe John Wang Ph.D.
Case Western Reserve University, Cleveland OH
Glutamate pyruvate transaminase 2 (GPT2) catalyzes the reversible transamination of glutamate and pyruvate to provide a-ketoglutarate and alanine. We have optimized an assay for GPT2 enzymatic activity that couples pyruvate formation to detection of fluorescence using an established pyruvate oxidase/horseradish peroxidase / Amplex Red system.
Screening conditions were 250uM a-KG, 2mM L-alanine, and 10ng/uL GPT2 in […] of solution; 10uL of Amplex reaction mix (outlined below) were added so that final concentrations of Amplex reagents in 50uL were 0.2mM ThPP, 0.2U/mL PO and HRP, and 50uM Amplex.
NOTE: The volume of GPT2 in the system depends on the activity of it. The activity is different every batch. You need to test the activity before the assay. For full plate assay with automation, plate 20uL of GPT2 buffer to pin into, then add 10uL of GPT2 dilution followed immediately by 10uL of substrate dilution. 2 Columns of the plate were devoted to GPT2 buffer ([…] PH7.5, 0.0001% Tween) + 50uM AOA (known GPT2 inhibitor) to serve as a positive control. Complete the assay as normal. Amplex-red buffer: […] PH7.5, 1 mM EDTA, 1 mM MgCl2.
1. Combine a-KG and L-alanine at desired concentrations and incubate for at least 10 minutes at 37C. Stocks of L-alanine and a-KG are diluted in distilled water. However, the stocks were diluted in GPT2 buffer for the assay.
2. Prepare GPT2 dilution at the desired concentration in GPT2 buffer.
3. Plate 40uL of GPT2 dilution with 40uL of substrate dilution and let incubate for 30 minutes at room temperature.
4. Add 20uL of Amplex reaction mix prepared as follows: 1.5uL 200U/mL Horseradish Peroxidase, 200mM Thiamine Pyrophosphate, 200U/mL Pyruvate Oxidase; 7.5uL 10mM Amplex Red; 288uL Amplex Buffer.
5. Incubate for 30 minutes at room temperature in the dark, then image using AM_Amplex_Fluorescence on plate reader nearest the window.
In the case of `CCCCN(C)C(=O)c1csc(N2CCN(c3ccccc3)CC2)n1`, the “outcome” value is reported as “inactive”. In the case of `O=C(NC1CCCCC1)N1CCC2(CC1)CC(N1CCN(c3ccccn3)CC1)CCO2` (configuration not stated), the Potency is reported as inconclusive: 39.8 µM [inhibitor, single point]. With `CN1CC(=O)N2C(Cc3c([nH]c4ccccc34)[C@H]2c2ccc3c(c2)OCO3)C1=O` (some centres not stated) the “activity change, negative = inhibition” value was inactive: 3.27%. With `CC(C)(C)c1ccnc(N[C@H]2CO[C@H]3[C@@H]2OC[C@@H]3NC(=O)NCc2ccccc2)n1` the Potency was inconclusive: 35.5 µM [inhibitor, partial curve, poor fit]. In the case of `Cc1ccc(-c2cc(N3CCCN(C(=O)c4ccccc4F)CC3)n[nH]2)cc1C`, the Potency is reported as inconclusive: 39.8 µM [inhibitor, single point]. For `COc1ccccc1Nc1ccnc(N2CCCC(C(=O)NCC(F)F)C2)n1` (configuration not stated), the “outcome” value was “inactive”. `Cc1ccc(NC(=O)N2CCC(n3cnnc3C3CC3)C2)cc1Cl` (configuration not stated) was tested, and the “outcome” value was “inactive”. `O[C@H]1[C@H](NCc2ccco2)[C@H]2CO[C@H](O2)[C@@H]1N1CCC(Cc2ccccc2)CC1` was tested, and the Potency was inconclusive: 1.26 µM [inhibitor, full curve, poor fit]. With `CCc1ocnc1C(=O)N1CCC(c2nnc(Cn3cncn3)n2C)CC1` the Potency was inconclusive: 7.08 µM [inhibitor, single point]. In the case of `CC[C@@H]1C(=O)N(C)c2cnc(Nc3ccc(C(=O)NC4CCN(C)CC4)cc3OC)nc2N1C1CCCC1`, the “outcome” value is reported as “inactive”. For `CCCNc1cc(N2CCC(CCC(=O)NCC3CC3)CC2)ncn1`, the Potency was inconclusive: 2.82 µM [inhibitor, full curve, poor fit]. In the case of `COc1ccc(CN2CCc3nc(N(C)C)[nH]c(=O)c3CC2)cc1OC`, the “activity change, negative = inhibition” value is reported as inactive: -10.4%. With `COc1ccc(-c2nc(CN3CC[C@H]4CC[C@@H](C3)N4)c(C)o2)c(OC)c1C` the outcome was “inactive [at 11.5 µM]”. For `N#Cc1ccc(OCC2CN(Cc3c[nH]c4ccccc34)C(=O)c3c(ccnc3-c3ccc(OCC(=O)O)cc3)O2)cc1` (configuration not stated), the Potency was inconclusive: 6.31 µM [inhibitor, single point]. With `O=C(NCCCc1ccccc1)C1CCCN(Cc2cccc(-c3ccc(F)cc3F)c2)C1` (configuration not stated) the Potency was inconclusive: 7.94 µM [inhibitor, full curve, poor fit]. In the case of `CNC(=O)C1(NC(=O)c2ccc(CCC(C)(C)O)cc2)CCCCC1`, the Potency is reported as inconclusive: 6.31 µM [inhibitor, single point]. In the case of `CC(=O)NC[C@H]1Cn2cc(-c3ccccc3)nc2CO1`, the “activity change, negative = inhibition” value is reported as inactive: -13.9% [at 88.5 µM]. With `COc1cc2ncnc(Nc3cc(Br)c(O)c(Br)c3)c2cc1OC` the Potency was inconclusive: 43.2 µM [inhibitor, single point] and inconclusive: 39.8 µM [inhibitor, single point]. For `O=C(C1CCCC1)N1CCn2c(nn(-c3ccc([N+](=O)[O-])cc3)c2=O)C1`, the Potency was inconclusive: 6.31 µM [inhibitor, single point]. With `Cc1ncnc(N2CCC(N3CCCC(C(=O)NCc4ccccn4)C3)CC2)c1C` (configuration not stated) the Potency was inconclusive: 2 µM [inhibitor, partial curve, poor fit]. For `CSCC(=O)N[C@H]1CCN2C(=O)N(c3ccc(C(C)C)cc3)C(=O)[C@@H]2C1`, the “activity change, negative = inhibition” value was inactive: 1.85% [at 88.5 µM]. For `COCCN1CC(CNc2nc(CCN)nc3sc(C)c(C)c23)CC1=O` (configuration not stated), the “activity change, negative = inhibition” value was inactive: -4.95%. For `COC1CCCN(c2cc(-c3cccnc3)nc3c(C)noc23)C1` (configuration not stated), the “activity change, negative = inhibition” value was inactive: -8.11% [at 88.5 µM]. `O=S(=O)(N=Cc1c(O)ccc2ccccc12)c1cccs1` was tested, and the Potency was inconclusive: 15.3 µM [inhibitor, partial curve, poor fit]. For `COc1ccc(CNC(=O)N2CCC3(CC2)CC(N(C)Cc2ccccc2)CCO3)cc1` (configuration not stated), the “activity change, negative = inhibition” value was inactive: -1.29%. In the case of `O=C1NCc2ccccc2CC12CCN(Cc1ccc(Cl)s1)CC2`, the “activity change, negative = inhibition” value is reported as inactive: 4.6%. For `O=C(Cc1ccc(C(F)(F)F)cc1)N1CC(COc2ccccc2)C2(C1)CN(C(=O)c1cn[nH]c1)C2` (configuration not stated), the Potency was inconclusive: 39.8 µM [inhibitor, single point]. With `COc1cc(F)cc(-c2ncc3c(n2)OCCN(C)C3=O)c1` the Potency was inconclusive: 7.94 µM [inhibitor, single point]. `O=C1c2cnc(-c3cccc(O)c3)nc2OCCN1c1cccc(C(F)(F)F)c1` was tested, and the Potency was inconclusive: 5.62 µM [inhibitor, full curve, poor fit]. In the case of `O=C1NC(=NC2CCCCC2)C2(CCN(CC3CCCCC3)CC2)N1c1cc(F)cc(F)c1`, the Potency is reported as inconclusive: 39.8 µM [inhibitor, single point]. For `COCC(=O)Nc1ccc(-c2c(C(C)C)nn(-c3cccc(F)c3)c2OC(C)=O)cc1`, the Potency was inconclusive: 35.5 µM [inhibitor, single point]. `O=C1N(c2ccccc2)c2ccccc2C12CCN(Cc1ccc(F)cc1)C2` (configuration not stated) was tested, and the “outcome” value was “inactive”.
